153 variants from a collection of fitness landscapes (doi:10.1126/science.1257360) can be followed below.

Some of the results follow.

B1: PhoQ; a variant is named by its letters at X, in order, P23837 (parent)
chain: MKKLLRLFFPLSLRVRFLLATAAVVLVLSLAYGMVALIGYSVSFDKTTFRLLRGESNLFYTLAKWENNKLHVELPENIDKQSPTMTLIYDENGQLLWAQRDVPWLMKMIQPDWLKSNGFHEIEADVNDTSLLLSGDHSIQQQLQEVREDDDDAEMTHSVAVNVYPATSRMPKLTIVVVDTIPVELKSSYMVWSWFIYVLSANLLLVIPLLWVAAWWSLRPIEALAKEVRELEEHNRELLNPATTRELTSLVRNLNRLLKSERERYDKYRTTLTDLTHSLKTPLXXLQXXLRSLRSEKMSVSDAEPVMLEQISRISQQIGYYLHRASMRGGTLLSRELHPVAPLLDNLTSALNKVYQRKGVNISLDISPEISFVGEQNDFVEVMGNVLDNACKYCLEFVEISARQTDEHLYIVVEDDGPGIPLSKREVIFDRGQRVDTLRPGQGVGLAVAREITEQYEGKIVAGESMLGGARMEVIFGRQHSAPKDE

This assay covers variants of B1. As to the kind of experiment: enrichment ratio after two sorts for PhoP signalling (ratio (wild type AVST 3.29)); higher = more functional. The note with it: with PhoP (E. coli).
For the variant VFSP, the enrichment ratio is no more than 0.25.

In the case of TVDF, the enrichment ratio amounted to 2.62.

QEHM: the enrichment ratio stood at 10.7.

As for FHTS, the enrichment ratio was no more than 0.25.

MFVC: the enrichment ratio was no more than 0.25.

EQLS: the enrichment ratio was no more than 0.25.

Regarding NIWY, the enrichment ratio is no more than 0.25.

For HYPL, the enrichment ratio is no more than 0.25.

For RNHR, the enrichment ratio is no more than 0.25.

Take VTNT: the enrichment ratio is no more than 0.25.

With DWPC, the enrichment ratio is no more than 0.25.

TAQQ: the enrichment ratio came to 32.8.

As for PTPQ, the enrichment ratio is no more than 0.25.

As to KFWD, the enrichment ratio was no more than 0.25.

Consider AMSQ, for which the enrichment ratio was 10.7.

In the case of KSPP, the enrichment ratio was no more than 0.25.

Regarding WTGW, the enrichment ratio was no more than 0.25.

On to AVMH, for which the enrichment ratio was found to be 11.8.

For the variant HPCS, the enrichment ratio was no more than 0.25.

Consider PSQA, for which the enrichment ratio is no more than 0.25.

Consider WPQI, for which the enrichment ratio is no more than 0.25.

Consider EHGI, for which the enrichment ratio is no more than 0.25.

Take RMFH: the enrichment ratio is no more than 0.25.

Turning to YWYL, the enrichment ratio was no more than 0.25.

Take YAYS: the enrichment ratio was no more than 0.25.

For LERG, the enrichment ratio was no more than 0.25.

For RMLR, the enrichment ratio was no more than 0.25.

As to WPNY, the enrichment ratio is no more than 0.25.

EDVP: the enrichment ratio is no more than 0.25.

Take LSGC: the enrichment ratio was no more than 0.25.

Take PTPH: the enrichment ratio is no more than 0.25.

For the variant LGIG, the enrichment ratio was no more than 0.25.

Turning to DTQA, the enrichment ratio was no more than 0.25.

As for YSTT, the enrichment ratio was no more than 0.25.

Consider NPLT, for which the enrichment ratio is no more than 0.25.

Consider WMWE, for which the enrichment ratio was no more than 0.25.

Turning to IFKM, the enrichment ratio is no more than 0.25.

For the variant TKTP, the enrichment ratio is no more than 0.25.

As to TNDH, the enrichment ratio is no more than 0.25.

With FMFH, the enrichment ratio was no more than 0.25.

TKAG: the enrichment ratio is no more than 0.25.

As for VQWG, the enrichment ratio is no more than 0.25.

KRAN: the enrichment ratio is no more than 0.25.

FHTM: the enrichment ratio was no more than 0.25.

Regarding EMPY, the enrichment ratio is no more than 0.25.

Turning to NYNF, the enrichment ratio is no more than 0.25.

For the variant TGHI, the enrichment ratio is no more than 0.25.

Consider IKSE, for which the enrichment ratio was no more than 0.25.

As for FISC, the enrichment ratio was no more than 0.25.

For YDTL, the enrichment ratio was no more than 0.25.

As for LPQW, the enrichment ratio was no more than 0.25.

As for QRQS, the enrichment ratio was no more than 0.25.

PRFD: the enrichment ratio was no more than 0.25.

Regarding QHWN, the enrichment ratio was no more than 0.25.

Consider TPGF, for which the enrichment ratio is no more than 0.25.

Regarding KISI, the enrichment ratio was no more than 0.25.

For VEDD, the enrichment ratio is no more than 0.25.

With INVN, the enrichment ratio was no more than 0.25.

For the variant RNLL, the enrichment ratio is no more than 0.25.

As for WKDA, the enrichment ratio was no more than 0.25.

As to QLHC, the enrichment ratio came out at 21.3.

Turning to YSCS, the enrichment ratio is no more than 0.25.

For the variant GYFW, the enrichment ratio is no more than 0.25.

Consider MSIM, for which the enrichment ratio is 8.97.

For the variant DWNQ, the enrichment ratio is no more than 0.25.

For the variant SDEN, the enrichment ratio is no more than 0.25.

As to QTRI, the enrichment ratio was no more than 0.25.

As for RGMC, the enrichment ratio was no more than 0.25.

Regarding DIPY, the enrichment ratio is no more than 0.25.

Regarding APYC, the enrichment ratio was no more than 0.25.

Consider IQRE, for which the enrichment ratio was no more than 0.25.

Consider SFMW, for which the enrichment ratio is no more than 0.25.

Consider STNL, for which the enrichment ratio stood at 4.19.

In the case of NQYS, the enrichment ratio is no more than 0.25.

Take MFFM: the enrichment ratio was no more than 0.25.

Regarding ETHE, the enrichment ratio is no more than 0.25.

As for DPPQ, the enrichment ratio was no more than 0.25.

Turning to DDFC, the enrichment ratio is no more than 0.25.

Take AMHW: the enrichment ratio is no more than 0.25.

For the variant WRYT, the enrichment ratio was no more than 0.25.

PHQK: the enrichment ratio is no more than 0.25.

Take LWHG: the enrichment ratio is no more than 0.25.

YRQC: the enrichment ratio was no more than 0.25.

Turning to FITD, the enrichment ratio is no more than 0.25.

As to YYGR, the enrichment ratio is no more than 0.25.

GISV: the enrichment ratio worked out at 11.2.

For ILTV, the enrichment ratio was no more than 0.25.

As to VTYP, the enrichment ratio was no more than 0.25.

For the variant NIQH, the enrichment ratio was no more than 0.25.

In the case of FTKS, the enrichment ratio was no more than 0.25.

In the case of PVCC, the enrichment ratio is no more than 0.25.

In the case of DPRM, the enrichment ratio is no more than 0.25.

On to MLNR, for which the enrichment ratio was no more than 0.25.

With DECH, the enrichment ratio was no more than 0.25.

GWRA: the enrichment ratio was no more than 0.25.

For GFPC, the enrichment ratio is no more than 0.25.

As to PFVM, the enrichment ratio was no more than 0.25.

For PMPD, the enrichment ratio is no more than 0.25.

With IMDC, the enrichment ratio was no more than 0.25.

Regarding MDVW, the enrichment ratio is no more than 0.25.

With EDFC, the enrichment ratio is no more than 0.25.

For the variant HNTG, the enrichment ratio was no more than 0.25.

Turning to IACR, the enrichment ratio is no more than 0.25.

LMGG: the enrichment ratio is no more than 0.25.

As to YHIC, the enrichment ratio was no more than 0.25.

In the case of NSSL, the enrichment ratio was no more than 0.25.

Turning to FGHA, the enrichment ratio is no more than 0.25.

On to KHYI, for which the enrichment ratio was no more than 0.25.

Take MGTW: the enrichment ratio was no more than 0.25.

Take FRRA: the enrichment ratio is no more than 0.25.

As to EIIL, the enrichment ratio is no more than 0.25.

As for QPSW, the enrichment ratio is no more than 0.25.

Turning to TFQY, the enrichment ratio was no more than 0.25.

Turning to NDRP, the enrichment ratio is no more than 0.25.

As to GITQ, the enrichment ratio worked out at 1.85.

In the case of DNED, the enrichment ratio was no more than 0.25.

For AYYY, the enrichment ratio is no more than 0.25.

With RYNQ, the enrichment ratio was no more than 0.25.

Take TTYK: the enrichment ratio is no more than 0.25.

In the case of AQHG, the enrichment ratio was no more than 0.25.

Regarding QRCF, the enrichment ratio was no more than 0.25.

As for WDVC, the enrichment ratio was no more than 0.25.

Turning to MEMR, the enrichment ratio is no more than 0.25.

Turning to EFMI, the enrichment ratio is no more than 0.25.

Take HEYV: the enrichment ratio was no more than 0.25.

With AKHH, the enrichment ratio was no more than 0.25.

RSVV: the enrichment ratio is no more than 0.25.

With HSTS, the enrichment ratio was no more than 0.25.

Turning to QSNK, the enrichment ratio is no more than 0.25.

On to KIRN, for which the enrichment ratio was no more than 0.25.

RKET: the enrichment ratio was no more than 0.25.

For LEGC, the enrichment ratio is no more than 0.25.

For the variant WQVL, the enrichment ratio was no more than 0.25.

Take QVSF: the enrichment ratio stood at 4.24.

Take VFVL: the enrichment ratio was no more than 0.25.

Regarding RTVE, the enrichment ratio was no more than 0.25.

Consider NMQT, for which the enrichment ratio is no more than 0.25.

Turning to SDYW, the enrichment ratio was no more than 0.25.

As to GAAF, the enrichment ratio was no more than 0.25.

Regarding GWTM, the enrichment ratio was no more than 0.25.

For the variant LTIH, the enrichment ratio was no more than 0.25.

Consider YLFP, for which the enrichment ratio was no more than 0.25.

Consider LWIW, for which the enrichment ratio was no more than 0.25.

On to SPGF, for which the enrichment ratio is no more than 0.25.

For the variant EKFC, the enrichment ratio is no more than 0.25.

For NGAY, the enrichment ratio was no more than 0.25.

In the case of FTTI, the enrichment ratio was no more than 0.25.

For WYPE, the enrichment ratio was no more than 0.25.

For the variant DVWM, the enrichment ratio was no more than 0.25.

Turning to WPIY, the enrichment ratio is no more than 0.25.

Take DSAL: the enrichment ratio is no more than 0.25.

In the case of LNRF, the enrichment ratio was 0.814.

Regarding QECW, the enrichment ratio was no more than 0.25.
